Source: PubChem BioAssay AID624417 (National Center for Advancing Translational Sciences (NCATS), 2012)
Values joined by “and” are separate entries in the source; they are usually repeats but may differ in a detail not shown here. Identical values can stand only once. Screen size: about 410,000 compounds; about 6,400 (1.6%) were called active. Inconclusive results, whose numbers are uncertain, are shown with a selection of clear calls. The call rests on the fitted dose curve; in most records, active means well fitted inhibition curve with a large enough effect; inconclusive means small, poorly fitted or top-dose-only effect; inactive means no such curve, though single readings can be large or run the other way. A potency beside an inconclusive call is a rough fit, not a confirmed value.
Further: nearly all actives have a fitted effect of over 55% in size.
On the % scale 0 is the no-effect control and ±100 the full control effect; potency means the concentration at half of the fitted maximal effect; tags describe the fitted curve by direction and shape.

The compounds below were run against Glucagon-like peptide 1 receptor (Homo sapiens) (UniProt P43220) (assay: qHTS of GLP-1 Receptor Inverse Agonists (Inhibition Mode)). Conditions: HEK293 GLP-1R CRE-luciferase, luminescence, 24 h, GLP-1R form is constitutively active; activity change, negative = inhibition: at 38.3 µM (top of the series) unless noted.
Sequence of UniProt P43220 (P43220 whole entry, looked up): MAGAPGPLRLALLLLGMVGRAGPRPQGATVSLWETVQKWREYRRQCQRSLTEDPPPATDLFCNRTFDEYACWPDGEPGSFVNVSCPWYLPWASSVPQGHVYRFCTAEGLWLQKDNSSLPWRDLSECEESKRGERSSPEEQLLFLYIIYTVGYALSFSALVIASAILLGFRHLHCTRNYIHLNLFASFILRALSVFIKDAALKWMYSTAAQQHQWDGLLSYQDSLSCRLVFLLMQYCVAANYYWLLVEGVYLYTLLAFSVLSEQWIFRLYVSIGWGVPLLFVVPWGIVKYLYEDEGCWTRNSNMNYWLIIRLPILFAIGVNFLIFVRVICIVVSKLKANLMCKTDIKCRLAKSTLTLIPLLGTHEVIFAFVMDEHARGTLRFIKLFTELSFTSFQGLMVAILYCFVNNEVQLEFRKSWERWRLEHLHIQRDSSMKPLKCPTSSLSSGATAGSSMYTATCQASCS
Outline: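 Cells are plated, allowed 12 hours at 37 deg C, then treated with compounds for 24 hr before luciferase detection reagent is added and luminescence is read after 12 min at room temperature. The HEK293 line carries constitutively active GLP-1R with a cAMP-responsive reporter.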
With `N#C/C(=C\c1cn[nH]c1-c1ccc(Cl)cc1)C(=O)NCc1ccccc1` the Potency was inconclusive: 28.2 µM [inhibitor, single point].
`CSCC[C@H](NC(=O)c1cccc(S(=O)(=O)N2CCCCC2)c1)c1nc2ccccc2[nH]1` was tested, and the Potency was inconclusive: 7.94 µM [inhibitor, partial curve, poor fit].
`Cc1ccccc1C(=O)NC(=O)Nc1ccc(-n2nc(C(F)(F)F)cc2C(F)(F)F)cc1` was tested, and the “activity change, negative = inhibition” value was inactive: -5.73%.
In the case of `CCCOc1cc(NCc2ccccc2)c2ncn(C(C)C)c2c1`, the Potency is reported as inconclusive: 28.2 µM [inhibitor, single point].
In the case of `COc1ccc(C(=O)n2c(-c3ccco3)nc3ccccc32)cc1`, the Potency is reported as inconclusive: 3.55 µM [inhibitor, partial curve, poor fit].
With `O=C(NC1CCCCC1)c1[nH]c(C(F)(F)F)nc1-c1ccccc1` the “activity change, negative = inhibition” value was inactive: -24.3%.
For `CCC(=O)N1CCc2cc(S(=O)(=O)NC(Cc3ccccc3)C(=O)NCc3cccc(OC)c3)ccc21` (centres undefined), the “activity change, negative = inhibition” value was inactive: 4.72%.
With `CC(=O)Nc1ccc(NC(=O)COC(=O)C2(c3ccc(Cl)cc3)CCCC2)cc1` the Potency was inconclusive: 8.91 µM [inhibitor, partial curve, poor fit].
With `CN(C(=O)CSc1cccc[n+]1[O-])C1CCCCC1` the Potency was inconclusive: 28.2 µM [inhibitor, single point].
In the case of `CC(C)(C)C(=O)Nc1ccc2nc(SCc3ccccc3)sc2c1`, the Potency is reported as inconclusive: 15.8 µM [inhibitor, partial curve, poor fit].
In the case of `CCOC(=O)[C@]12CCCC=C1N(Cc1cccc3ccccc13)C(=O)[C@H](CC(=O)NCC13CC4CC(CC(C4)C1)C3)C2`, the Potency is reported as inconclusive: 12.6 µM [inhibitor, single point].
In the case of `Cc1cc(N/N=C/c2ccc(F)cc2)nc(NCc2ccccc2)n1`, the Potency is reported as inconclusive: 3.55 µM [inhibitor, partial curve, poor fit].
With `CC1=C(c2ccc(F)cc2)S(=O)(=O)NC1=NCc1ccccc1Cl` the Potency was inconclusive: 3.16 µM [inhibitor, full curve].
For `COc1cc(OC)c2c(-c3cccc(-c4ccc(O)cc4)c3)cc(=O)oc2c1`, the “activity change, negative = inhibition” value was inactive: 1.5%.
In the case of `COc1ccc(CNCCC(c2ccc(OC(C)C)cc2)c2ccccc2OC)cc1` (centres undefined), the Potency is reported as active: 5.62 µM.
In the case of `Cc1ccc(N=Nc2c(N)n[nH]c2N)cc1`, the “activity change, negative = inhibition” value is reported as inactive: 31.9%.
`Cc1ccc(NC(=O)CC2Nc3ccccc3NC2=O)cc1Cl` (centres undefined) was tested, and the Potency was active: 10 µM.
For `COc1ccc(-n2c(-c3ccc(Cl)cc3)c[nH]c2=S)cc1`, the “activity change, negative = inhibition” value was inactive: -19.3%.
`O=C(N/N=C\c1ccc(F)cc1)c1cc(OCC(F)(F)F)ccc1OCC(F)(F)F` was tested, and the “activity change, negative = inhibition” value was inactive: 0%.
For `C/C(N)=C(/C#N)C(=O)COC(=O)c1ccccc1Cc1ccccc1`, the Potency was inconclusive: 11.2 µM [inhibitor, partial curve, poor fit].
In the case of `CCCCOc1ccccc1NC(=O)c1ccco1`, the Potency is reported as inconclusive: 20 µM [inhibitor, single point].
`COc1ccc(C(=O)Nc2cccc(OC(=O)c3ccc(C)c(C)c3)c2)cc1` was tested, and the Potency was inconclusive: 17.8 µM [inhibitor, partial curve, poor fit].
With `CCCn1nc2cc(C(=O)NCCc3ccc(C)cc3)ccc2c1OCC` the Potency was inconclusive: 10 µM [inhibitor, partial curve, poor fit].
In the case of `O=C(c1cc(-c2cccc(Cl)c2)nc2ccccc12)N1CCCC1`, the Potency is reported as inconclusive: 11.2 µM [inhibitor, partial curve, poor fit].
In the case of `O=C(Nc1cccc(Cl)c1)Nc1nnc(-c2ccncc2)s1`, the Potency is reported as inconclusive: 6.31 µM [inhibitor, partial curve, poor fit].
In the case of `O=C(c1ccc2c(c1)CCN2S(=O)(=O)c1ccccc1)N1CCN(c2ccccc2)CC1`, the “activity change, negative = inhibition” value is reported as inactive: 2.25%.
`O=C(NCCc1ccccc1)C1CCCN(c2ncnc3c2nc2n3CCCCC2)C1` (centres undefined) was tested, and the Potency was inconclusive: 0.316 µM [inhibitor, full curve, poor fit].
In the case of `CN(C)C(CNC(=O)Cc1cccc(C(F)(F)F)c1)c1ccccc1` (centres undefined), the Potency is reported as inconclusive: 28.2 µM [inhibitor, single point].
`CC(C)C(=O)Nc1nnc(NC(=S)Nc2ccccc2)s1` was tested, and the “activity change, negative = inhibition” value was inactive: -4.48%.
For `CC1=C(C(=O)Nc2cccc(F)c2)C2(CCCCC2)OC1=O`, the Potency was inconclusive: 10 µM [inhibitor, partial curve, poor fit].
In the case of `Cc1ccc(CNC(=O)CCc2c(C)c3cc4c(C)coc4cc3oc2=O)cc1`, the “activity change, negative = inhibition” value is reported as inactive: 12.4%.
For `O=C(N/N=C/c1ccc(-c2ccccc2[N+](=O)[O-])o1)[C@H]1C[C@@H]1c1ccccc1`, the Potency was inconclusive: 28.2 µM [inhibitor, single point].
In the case of `CC1(C)C(CSc2nc3ccccc3[nH]2)C1(Cl)Cl` (centres undefined), the Potency is reported as inconclusive: 28.2 µM [inhibitor, single point].
For `CC1CCCN(c2ccc([N+](=O)[O-])cc2C(=O)c2ccccc2)C1` (centres undefined), the Potency was inconclusive: 0.794 µM [inhibitor, full curve, poor fit].
With `CCOC(=O)CCCN(c1[nH]c(C)c(C)c1C#N)S(=O)(=O)c1ccc(C)cc1` the Potency was inconclusive: 10 µM [inhibitor, single point].
For `CCC(Sc1ccccn1)C(=O)Nc1cccc([N+](=O)[O-])c1` (centres undefined), the Potency was inconclusive: 22.4 µM [inhibitor, partial curve, poor fit].
In the case of `CCCCN(Cc1cc2ccccc2[nH]c1=O)S(=O)(=O)c1ccc(C)cc1`, the Potency is reported as inconclusive: 11.2 µM [inhibitor, single point].
`CCOC(=O)c1ccc(N2C(=O)c3n[nH]c(-c4cccs4)c3C2c2cccc(O)c2)cc1` (centres undefined) was tested, and the Potency was inconclusive: 14.1 µM [inhibitor, partial curve, poor fit].
`COc1ccc([N+](=O)[O-])cc1NC(=O)C(C)Sc1nc(-c2ccccc2)cs1` (centres undefined) was tested, and the Potency was inconclusive: 8.91 µM [inhibitor, partial curve].
`CC(=O)Nc1cc2c(cc1NC(=O)Cn1nnc(-c3ccc(C)o3)n1)OCCO2` was tested, and the Potency was inconclusive: 11.2 µM [inhibitor, partial curve].
`Nc1c(-c2ccccc2)cnn1-c1ccc(C(=O)O)cc1` was tested, and the “activity change, negative = inhibition” value was inactive: 0%.
In the case of `N#Cc1c(-n2ncnc2-c2ccccc2Cl)sc2c1CCCCC2`, the “activity change, negative = inhibition” value is reported as inactive: 8.45%.
In the case of `CN(CC(=O)NCc1ccccc1)CC(=O)Nc1ccc(Cl)c(C(F)(F)F)c1`, the Potency is reported as inconclusive: 11.2 µM [inhibitor, single point].
With `CCOC(=O)C1CCCN(CCC(=O)Nc2ccc(Br)c(C)c2)C1` (centres undefined) the Potency was inconclusive: 10 µM [inhibitor, partial curve].
For `COc1ccc(N(C)C(=O)c2oc(=O)c3ccccc3c2-c2ccc(C)cc2)c(OC)c1`, the Potency was inconclusive: 14.1 µM [inhibitor, single point] and inconclusive: 11.2 µM [inhibitor, partial curve, poor fit].
In the case of `CCC(C(=O)OCC(=O)c1c(N)n(CC(C)C)c(=O)n(C)c1=O)c1ccccc1` (centres undefined), the Potency is reported as inconclusive: 10 µM [inhibitor, partial curve, poor fit].
`CC(C)COC(=O)c1ccc(NC(=O)C2C3C=CC(C3)C2C(=O)O)cc1` (centres undefined) was tested, and the Potency was inconclusive: 11.2 µM [inhibitor, single point].
`COc1ccc2[nH]c(C)c(CCNC(=S)Nc3ccc(F)cc3)c2c1` was tested, and the Potency was inconclusive: 14.1 µM [inhibitor, partial curve, poor fit].
In the case of `S=C(NC1CC1)NC1CCCc2ccccc21` (centres undefined), the Potency is reported as inconclusive: 15.8 µM [inhibitor, single point].
For `C[C@@H]1[C@H](c2ccccc2)Oc2ccc(Cl)cc2S(=O)(=O)N1CC1CCCN1C(=O)OC(C)(C)C` (some centres undefined), the Potency was inconclusive: 31.6 µM [inhibitor, single point].
`c1ccc(-c2csc(=Nc3cccnc3)n2CC2CCCO2)cc1` (centres undefined) was tested, and the Potency was inconclusive: 31.6 µM [inhibitor, single point].
With `COc1ccc(Cl)cc1NC(=O)CCCNC(=O)c1ccc(Cl)cc1` the Potency was inconclusive: 11.2 µM [inhibitor, partial curve, poor fit].
`O=C(c1cc2cc(Cl)ccc2oc1=O)N1CCCCCCC1` was tested, and the “activity change, negative = inhibition” value was inactive: -3.32%.
`Cc1nnc(SCC(=O)Nc2ccc(S(=O)(=O)N3CCCC3)cc2)n1N` was tested, and the “activity change, negative = inhibition” value was inactive: -0.775%.
For `CNC(=O)c1cc2cc(OC)ccc2n1CCN(Cc1ccccc1)Cc1ccccc1`, the “activity change, negative = inhibition” value was inactive: -11.5%.
For `O=C(Nc1ccc(Cl)cc1Cl)C1=Cc2ccccc2OC1`, the “activity change, negative = inhibition” value was inactive: -10.9%.
For `Cc1ccc(S(=O)(=O)N2CC3(O)CN(C(=O)OC(C)C)N(C(=O)OC(C)C)CC3(OC(=O)Nc3cccs3)C2)cc1` (centres undefined), the Potency was inconclusive: 8.91 µM [inhibitor, partial curve, poor fit].
With `COc1ccc(-c2cc(C(F)(F)F)nc(SCCC(=O)Nc3ccc(F)cc3F)n2)cc1` the “activity change, negative = inhibition” value was inactive: 11%.
With `CCC(C(=O)NCc1ccc(F)cc1)N(CCc1ccccc1)C(=O)c1snc(C(N)=O)c1N` (centres undefined) the Potency was inconclusive: 31.6 µM [inhibitor, single point].
For `Cc1ccc(S(=O)(=O)N2CCCN(S(=O)(=O)c3ccc(C)cc3)CC2)cc1`, the Potency was inconclusive: 5.62 µM [inhibitor, full curve, poor fit].
With `Cc1ccc(-c2nc(CN3CCCCC3c3cccc(F)c3)c(C)o2)o1` (centres undefined) the Potency was inconclusive: 28.2 µM [inhibitor, single point].
In the case of `CN(c1ccccc1)c1ccc(/C=C(\C#N)c2nnc3n2CCCCC3)cc1[N+](=O)[O-]`, the Potency is reported as inconclusive: 2.24 µM [inhibitor, full curve].
With `O=C(c1cc(Sc2cccc(Cl)c2)nc2ccccc12)N1CCN(c2ccccn2)CC1` the Potency was inconclusive: 10 µM [inhibitor, partial curve, poor fit].
For `O=C(Nc1cccc(Cl)c1)c1ccc2ncsc2c1`, the Potency was inconclusive: 28.2 µM [inhibitor, single point].
